Measurements from PubChem BioAssay AID2546 (National Center for Advancing Translational Sciences (NCATS), 2010).
In all, about 310,000 compounds went through this assay and about 11,000 (3.5%) were called active. The inconclusive results got no clear call from the source; some entries with a clear call stand among them for comparison. The call rests on the fitted dose curve; in most records, active means well fitted inhibition curve with a large enough effect; inconclusive means small, poorly fitted or top-dose-only effect, or effect the other way; inactive means flat fitted curve, though single readings scatter. Potencies of inconclusive entries are left out as doubtful fits.

Assay: VP16 counterscreen qHTS for inhibitors of ROR gamma transcriptional activity;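 further: Gal4-VP16 expression switched on by copper sulfate through the metallothionein promoter; nearly all actives have a fitted effect of over 50% in size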
Settings: Drosophila S2 Gal4-VP16 UAS-luciferase, luminescence, 20 h; activity, negative = inhibition: at 53.6 µM (top of the series)
On the % scale 0 is the no-effect control and ±100 the full control effect; potency means the concentration at half of the fitted maximal effect; tags describe the fitted curve by direction and shape.

Compound	Potency	activity, negative = inhibition
CCNC(=S)N/N=C(\C)c1cccc([N+](=O)[O-])c1	active: 4.47 µM	
Cc1cnc(Nc2nc3ccccc3o2)nc1C(=O)Nc1cccc(C(F)(F)F)c1	inconclusive [inhibitor, single point]	
N#CC1CN(Cc2ccccc2)CN(Cc2ccccc2)C1	inactive	
N#CCCN(Cc1cccnc1)C(=S)NC(=O)c1ccc(S(=O)(=O)N2CCCC2)cc1	inconclusive [inhibitor, single point]	
COc1cccc(-c2nnc(NC(=O)c3ccc(S(=O)(=O)N4CCOCC4)cc3)o2)c1	active: 0.891 µM	
CC1=CN2C(=NC(=O)CC2(C)C(=O)N(CC(=O)NC2CCCC2)Cc2ccc(Cl)cc2)C=C1 (configuration not stated)	inactive	
COC(=O)c1cccc(NC(=O)c2cnccn2)c1	inconclusive [activator, single point]	
CSc1nnc(-c2ccc(NC(N)=S)cc2)o1	inconclusive [activator, partial curve]	
Cc1occc1C(=O)Nc1nnc(-c2cccs2)s1	inconclusive [activator, full curve, poor fit]	
Cc1ccc(-c2nn3c(C)nnc3c3ccccc23)cc1S(=O)(=O)NCCO	inactive	
CCOC(=O)NC(=S)Nc1ccc(C(C)(C)C)cc1Br	active: 10 µM	
NC1=NC2(CCN(Cc3ccccc3)CC2)n2c(nc3ccccc32)N1	inconclusive [inhibitor, single point]	
CN(C)CCNC(=O)c1cc2c(s1)-c1ccc(Cl)cc1SC2	inconclusive [inhibitor, single point]	
CCC1Oc2ccccc2N(CC(=O)NCCCN2CCN(CC)CC2)C1=O (configuration not stated)	inactive	
CC(C)(C)c1ccc(-c2n[nH]c(=S)n2/N=C/c2ccncc2)cc1	active: 14.1 µM	
Nc1cc(C(=O)c2ccccc2)ccc1N1CCOCC1	inconclusive [activator, single point]	
COC(=O)C(C)N1C(=O)S/C(=C/c2cc(C)n(-c3ccccn3)c2C)C1=O (configuration not stated)	inconclusive [inhibitor, single point]	
CCn1c(=O)c(C(C)=O)nc2ccccc21	inactive	
CCCCNS(=O)(=O)c1ccc(OC)c2ncccc12	inactive	
COC(=O)C1=C(C)N(CCc2c[nH]c3ccccc23)C(=O)/C1=C\N(C)C		inactive: 7.45% [at 10 µM]
COc1cccc(-n2c(C)nc3c(cnn3-c3ccc(Cl)cc3)c2=O)c1	inconclusive [inhibitor, single point]	
CN(C#N)c1nccc(-c2cccs2)n1	inconclusive [activator, single point]	
